{
  "source": "paper PMC4336329",
  "about": "(PLoS ONE, 2015)",
  "note": "The whole screen tested about 310,000 compounds, of which about 14,000 (4.5%) showed an effect of 50% or more. Effects have a minus sign here. Some of the results follow.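 Further: peak tail current of the secondary pulse compared with the same well before compound.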",
  "data": [
    {"target": "human ether-à-go-go-related gene (hERG) potassium channel (human, UniProt Q12809)", "sequence (Q12809 whole entry, looked up)": "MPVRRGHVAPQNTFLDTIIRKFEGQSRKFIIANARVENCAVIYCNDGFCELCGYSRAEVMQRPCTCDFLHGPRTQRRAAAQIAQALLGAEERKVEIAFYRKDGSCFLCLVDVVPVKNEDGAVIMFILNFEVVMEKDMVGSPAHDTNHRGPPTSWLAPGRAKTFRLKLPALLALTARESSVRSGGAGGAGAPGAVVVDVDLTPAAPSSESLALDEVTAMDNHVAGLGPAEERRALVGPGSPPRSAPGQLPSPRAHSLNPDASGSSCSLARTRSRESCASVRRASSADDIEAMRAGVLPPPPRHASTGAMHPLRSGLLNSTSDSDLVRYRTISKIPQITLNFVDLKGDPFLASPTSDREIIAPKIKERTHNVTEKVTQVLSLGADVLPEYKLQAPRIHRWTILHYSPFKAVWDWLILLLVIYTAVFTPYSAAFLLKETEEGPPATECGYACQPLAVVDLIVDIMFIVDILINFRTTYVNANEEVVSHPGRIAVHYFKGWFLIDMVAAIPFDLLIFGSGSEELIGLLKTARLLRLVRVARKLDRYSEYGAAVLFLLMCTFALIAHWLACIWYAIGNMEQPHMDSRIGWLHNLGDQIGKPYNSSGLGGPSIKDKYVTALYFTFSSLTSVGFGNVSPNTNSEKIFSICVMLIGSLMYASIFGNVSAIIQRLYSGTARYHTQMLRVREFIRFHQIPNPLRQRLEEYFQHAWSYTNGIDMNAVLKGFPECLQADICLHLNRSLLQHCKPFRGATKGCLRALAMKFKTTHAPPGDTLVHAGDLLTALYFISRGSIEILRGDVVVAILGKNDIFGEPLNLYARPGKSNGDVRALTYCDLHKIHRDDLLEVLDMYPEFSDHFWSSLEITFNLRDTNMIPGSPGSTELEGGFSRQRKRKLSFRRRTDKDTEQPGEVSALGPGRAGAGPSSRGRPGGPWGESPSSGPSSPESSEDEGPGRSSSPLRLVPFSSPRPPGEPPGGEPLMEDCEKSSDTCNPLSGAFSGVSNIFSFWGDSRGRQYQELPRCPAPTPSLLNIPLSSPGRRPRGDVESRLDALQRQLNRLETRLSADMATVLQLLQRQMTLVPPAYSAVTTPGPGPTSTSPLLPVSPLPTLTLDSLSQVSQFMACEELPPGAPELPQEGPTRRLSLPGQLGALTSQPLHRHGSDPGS", "assay": "primary screen, population patch clamp on CHO cells stably expressing hERG", "units": {"hERG current change (%, negative = inhibition) at 10uM": "%"}, "values": [
      {"smiles": "CN(C)/C=C1\\SC(=S)N(N2C(=O)C3C4C=CC(C4)C3C2=O)C1=O", "note": "(centres unmarked)", "hERG current change (%, negative = inhibition) at 10uM": -0.75},
      {"smiles": "Cc1nonc1OCCN1CCN(c2ccccc2[N+](=O)[O-])CC1.Cl", "hERG current change (%, negative = inhibition) at 10uM": -37.2},
      {"smiles": "COc1ccc2c(c1)[nH]c1c(=O)n(Cc3ccncc3)cnc12", "hERG current change (%, negative = inhibition) at 10uM": -18.8},
      {"smiles": "O=C(CCn1cnnn1)Nc1ccccc1F", "hERG current change (%, negative = inhibition) at 10uM": 6.63},
      {"smiles": "OCC[C@H]1C[C@@H](O)[C@H](O)[C@]2(Cc3ccccc3CCO2)O1", "hERG current change (%, negative = inhibition) at 10uM": -0.537},
      {"smiles": "CN(c1ccc(OCC(=O)OCC(=O)Nc2ccccc2)cc1)S(=O)(=O)c1cccs1", "hERG current change (%, negative = inhibition) at 10uM": -7.15},
      {"smiles": "Cc1ccc(S(=O)(=O)NC2=NCCCCC2)cc1", "hERG current change (%, negative = inhibition) at 10uM": -5.86},
      {"smiles": "CN1CCN(c2ccc([N+](=O)[O-])cc2NC(=O)c2ccccc2Cl)CC1", "hERG current change (%, negative = inhibition) at 10uM": -71.1},
      {"smiles": "CCOc1ccccc1NC(=O)C(OC(=O)c1ccc(O)cc1)c1ccccc1", "note": "(centres unmarked)", "hERG current change (%, negative = inhibition) at 10uM": -15.1},
      {"smiles": "O=C(COc1ccccc1)Nc1ccc(OC(F)(F)C(F)F)c(NC(=O)COc2ccccc2)c1", "hERG current change (%, negative = inhibition) at 10uM": 0.083},
      {"smiles": "Cc1cc([N+](=O)[O-])ccc1NC(=O)CCC(=O)N1CCCCC1", "hERG current change (%, negative = inhibition) at 10uM": -23.9},
      {"smiles": "CC(C)(C)n1nc2c(c1NC(=O)c1cc([N+](=O)[O-])ccc1Cl)CS(=O)(=O)C2", "hERG current change (%, negative = inhibition) at 10uM": 2.01},
      {"smiles": "C/C=C/COc1nc2c(c(=O)n(C)c(=O)n2C)n1C", "hERG current change (%, negative = inhibition) at 10uM": 7.25},
      {"smiles": "C/C(=N\\NC(=O)c1cccc(Br)c1)c1cccc(NC(=O)c2ccc(C)o2)c1", "hERG current change (%, negative = inhibition) at 10uM": -6.46},
      {"smiles": "COc1ccc(-c2[nH]ncc2CN(Cc2nccn2C)C(C)C)c(F)c1", "hERG current change (%, negative = inhibition) at 10uM": -39.7},
      {"smiles": "O=C(NCC(=O)N(c1ccc(Cl)cc1)C(C(=O)NC1CCCC1)c1ccncc1)c1ccco1", "note": "(centres unmarked)", "hERG current change (%, negative = inhibition) at 10uM": -5.29},
      {"smiles": "COc1ccccc1NC(=S)N1CCN(c2ccc(F)cc2)CC1", "hERG current change (%, negative = inhibition) at 10uM": 14.6},
      {"smiles": "CCOc1ccc(C(c2c(C)n(C)n(-c3ccccc3)c2=O)c2c(C)n(C)n(-c3ccccc3)c2=O)c(O)c1", "hERG current change (%, negative = inhibition) at 10uM": 12.9},
      {"smiles": "O=c1c2ccccc2nc(-c2ccc([N+](=O)[O-])cc2)n1O", "hERG current change (%, negative = inhibition) at 10uM": 10.4},
      {"smiles": "CCOc1ccc(C(=O)N2CCCCCC2)cc1", "hERG current change (%, negative = inhibition) at 10uM": 2.03},
      {"smiles": "O=C(c1ccc(COc2ccc(Cl)cc2)o1)N1CCN(Cc2ccc3c(c2)OCO3)CC1", "hERG current change (%, negative = inhibition) at 10uM": -12.7},
      {"smiles": "COc1ccc(CNC(=O)COC(=O)CCOc2ccccc2)cc1", "hERG current change (%, negative = inhibition) at 10uM": 7.75},
      {"smiles": "O=C(O)c1ccccc1CSc1nc2ccccc2[nH]1", "hERG current change (%, negative = inhibition) at 10uM": 13.6},
      {"smiles": "Cl.OCCN1CCN(CCOc2cccc(Cl)c2)CC1", "hERG current change (%, negative = inhibition) at 10uM": -15.6},
      {"smiles": "COc1ccc(C)cc1S(=O)(=O)NC1CCCC1", "hERG current change (%, negative = inhibition) at 10uM": 13.3},
      {"smiles": "COc1ccc(C(C)NC(=O)C2CCCC2)cc1", "note": "(centres unmarked)", "hERG current change (%, negative = inhibition) at 10uM": 15.1},
      {"smiles": "O=C(/C=C/c1cccc(Cl)c1)NCCCN1CCOCC1", "hERG current change (%, negative = inhibition) at 10uM": 4.19},
      {"smiles": "Cc1cccc(-n2c(-c3csc4ccccc34)n[nH]c2=S)c1", "hERG current change (%, negative = inhibition) at 10uM": 5.78},
      {"smiles": "COc1ccc(-c2[nH]c(-c3ccccc3)nc2SCC(=O)Nc2nccs2)cc1", "hERG current change (%, negative = inhibition) at 10uM": -18},
      {"smiles": "CCCc1cc(C(=O)NCc2ccccc2)no1", "hERG current change (%, negative = inhibition) at 10uM": -18.4},
      {"smiles": "CN(C)S(=O)(=O)c1ccc(C(=O)Nc2cccc(C(=O)N3CCOCC3)c2)cc1", "hERG current change (%, negative = inhibition) at 10uM": 0.431},
      {"smiles": "CCOC(=O)c1cc(C)n(S(=O)(=O)c2ccc(C)cc2)c1C", "hERG current change (%, negative = inhibition) at 10uM": -2.18},
      {"smiles": "CN(C)/C=N/c1nc2nccc(-c3ccc(F)cc3)n2n1", "hERG current change (%, negative = inhibition) at 10uM": 13.8},
      {"smiles": "COc1ccc(CNC(=O)COC(=O)c2ccccc2OCC(=O)Nc2ccc(SC(F)F)cc2)cc1", "hERG current change (%, negative = inhibition) at 10uM": 6.66},
      {"smiles": "Cc1ccccc1Oc1nc2c(C)cccn2c(=O)c1/C=C(\\C#N)C(=O)NC1CCS(=O)(=O)C1", "note": "(centres unmarked)", "hERG current change (%, negative = inhibition) at 10uM": -19.8},
      {"smiles": "CC(=O)N1CCN(c2ccc(NC(=O)c3ccc4ccccc4c3)cc2)CC1", "hERG current change (%, negative = inhibition) at 10uM": -7.05},
      {"smiles": "CN(C(=O)c1ccccc1C(=O)c1ccccc1)C1CCS(=O)(=O)C1", "note": "(centres unmarked)", "hERG current change (%, negative = inhibition) at 10uM": 15.5},
      {"smiles": "CCOc1ccc(-c2cc(C(=O)OC)[nH]n2)cc1", "hERG current change (%, negative = inhibition) at 10uM": 2.77},
      {"smiles": "O=C(Nc1nc(-c2cc(F)ccc2F)cs1)c1cccc(N2C(=O)CCC2=O)c1", "hERG current change (%, negative = inhibition) at 10uM": -2.22},
      {"smiles": "CCOC(=O)Nc1cc(Br)c2c(c1)OCCO2", "hERG current change (%, negative = inhibition) at 10uM": -6.45},
      {"smiles": "Fc1ccc(Nc2ncnc3sccc23)cc1", "hERG current change (%, negative = inhibition) at 10uM": 2.35},
      {"smiles": "CC(C)(C)c1ccc(C(=O)NNC(=O)CCC(=O)Nc2ccccc2)cc1", "hERG current change (%, negative = inhibition) at 10uM": -5.91},
      {"smiles": "CCN(CC)CCNS(=O)(=O)c1ccc(/C=C/C(=O)O)cc1", "hERG current change (%, negative = inhibition) at 10uM": 21.8},
      {"smiles": "Cc1ccc(S(=O)(=O)N2CCN(C(=O)CN3CCCC3)C2)cc1", "hERG current change (%, negative = inhibition) at 10uM": -6.28}
    ]}
  ]
}
